Results: PubChem BioAssay AID1468 (National Center for Advancing Translational Sciences (NCATS), 2008)
Hit rate of the full screen: of about 280,000 compounds, about 1,100 (0.39%) were called active. The inconclusive results got no clear call from the source; some entries with a clear call stand among them for comparison. Calls follow the shape of the dose curve; as a rule, active = well fitted inhibition curve with a large enough effect; inconclusive = small, poorly fitted or top-dose-only effect, or effect the other way; inactive = flat fitted curve, though single readings scatter. Potencies of inconclusive entries are left out as doubtful fits.

target: Microtubule-associated protein tau (Homo sapiens) (UniProt P10636); assay: qHTS for Inhibitors of Tau Fibril Formation, Fluorescence Polarization; conditions: K18 P301L tau heparin fibrillization, Alexa594 FP, 6 h; series mostly up to 57.7 µM; also: nearly all actives have a fitted effect of over 55% in size
Sequence of UniProt P10636 (P10636 whole entry, looked up): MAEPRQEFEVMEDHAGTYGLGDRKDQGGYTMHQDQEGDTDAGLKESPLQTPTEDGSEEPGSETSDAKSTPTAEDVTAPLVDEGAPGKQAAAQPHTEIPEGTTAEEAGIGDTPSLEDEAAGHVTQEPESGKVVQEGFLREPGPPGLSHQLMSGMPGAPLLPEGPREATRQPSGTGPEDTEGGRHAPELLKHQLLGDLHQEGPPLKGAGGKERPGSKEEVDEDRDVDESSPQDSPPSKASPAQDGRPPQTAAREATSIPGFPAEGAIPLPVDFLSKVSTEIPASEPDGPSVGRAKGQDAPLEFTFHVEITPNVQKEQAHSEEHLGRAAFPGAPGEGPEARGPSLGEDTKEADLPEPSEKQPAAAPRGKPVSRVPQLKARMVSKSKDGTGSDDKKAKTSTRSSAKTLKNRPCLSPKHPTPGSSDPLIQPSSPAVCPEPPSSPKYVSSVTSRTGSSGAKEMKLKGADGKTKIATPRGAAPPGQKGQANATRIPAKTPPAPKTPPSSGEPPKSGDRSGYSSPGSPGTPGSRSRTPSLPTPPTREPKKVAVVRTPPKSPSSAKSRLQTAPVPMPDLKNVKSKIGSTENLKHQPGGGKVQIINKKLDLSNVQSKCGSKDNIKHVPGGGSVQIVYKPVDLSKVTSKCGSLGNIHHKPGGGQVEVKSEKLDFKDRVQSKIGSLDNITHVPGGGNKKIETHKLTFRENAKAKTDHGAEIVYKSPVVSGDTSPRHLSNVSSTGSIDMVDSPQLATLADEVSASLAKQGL
Method in brief: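 Quantitative HTS format: compounds meet 15 uM recombinant K18 P301L tau and Alexa 594-tau tracer in 100 mM sodium acetate pH 7; 20 uM heparin triggers fibrillization at 37 C over 6 hr; FP gives the signal.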
Potency is read from the fitted curve at half-maximal effect; tags tell the direction and shape of the fitted curve.

Structure (SMILES) | Potency
CCc1ccc(N2C(=O)NC(=O)/C(=C/c3ccsc3)C2=O)cc1 | inactive
CCc1c(C)nc(N)nc1N1N=C1SC(C(C)=O)C(C)=O | inconclusive [inhibitor, partial curve, poor fit]
c1cc2c(cc1[C@H]1OC[C@@H]3[C@H]1CO[C@H]3c1ccc3c(c1)OCO3)OCO2 | inactive
CCN1C[C@]2(C)CC[C@H](O)[C@@]34C5C[C@@H]6[C@@H](OC)C[C@@](O)(C5[C@H]6O)[C@@H](CC23)[C@@H]14 (stereo partly drawn) | inactive
CCCCCCNC(=O)N[C@H](Cc1ccc(O)cc1)C(=O)NCCC[C@H]1CN2C(=NC[C@H]2CCC)N1CC1CCC1 | inactive
Nc1ncnc2c1ncn2[C@@H]1O[C@H](COP(=O)(O)CP(=O)(O)O)[C@@H](O)[C@H]1O | inactive
N#CC(=Cc1ccc(O)c(O)c1)C(N)=S | inconclusive [inhibitor, partial curve]
COc1ccc2nc(/N=C/c3c(O)n(-c4cccc(Cl)c4)c(=O)[nH]c3=O)sc2c1 | inconclusive [inhibitor, partial curve]
Oc1ccccc1/C=N/NP(=S)(c1ccccc1)c1ccccc1 | inconclusive [inhibitor, single point]
COc1cc2c(cc1OC)-c1c(OC)c(OC)c(C=O)c3c1[C@H](C2)N(C)CC3 | inconclusive [inhibitor, single point]
O=c1[nH]c(=O)n(CCc2ccc(F)cc2)c(O)c1C=NCc1ccc2c(c1)OCO2 | inconclusive [inhibitor, full curve, poor fit]
CCOc1ccc(NC(=O)c2cccn(Cc3cccc(Cl)c3)c2=O)cc1 | inconclusive [activator, single point]
CN(C)c1nn(C(=O)Nc2cccc(C(F)(F)F)c2)cc1-c1ccccc1 | inconclusive [inhibitor, partial curve]
COc1cc2c(cc1OC)-c1c(O)c(OC)cc3c1[C@H](C2)N(C)CC3 | active: 11.2 µM
CCOC(=O)CSCCOc1ccc(C=C2C(=O)NC(=O)NC2=O)cc1OC | inconclusive [inhibitor, single point]
COc1cccc(CNC(=O)c2cc3c(-c4ccccc4F)nn(C)c3s2)c1 | inconclusive [inhibitor, partial curve]
C=C1CC2C(CC[C@]3(C)C(=O)CCC23)[C@]2(C)C=CC(=O)C=C12 (stereo partly drawn) | inactive
Cc1nn(-c2ccccc2)c2c1C(c1ccc(F)cc1F)C(C#N)=C(N)O2 (stereo not drawn) | inconclusive [inhibitor, single point]
